# The BET-seq Pho4 binding data (Le et al. 2018)
# The other results are listed elsewhere or left out. These are noisy estimates, calculated here from bound and input reads.
# Molecular target: T1, Pho4 (S. cerevisiae) (UniProt P07270)
# T1 sequence: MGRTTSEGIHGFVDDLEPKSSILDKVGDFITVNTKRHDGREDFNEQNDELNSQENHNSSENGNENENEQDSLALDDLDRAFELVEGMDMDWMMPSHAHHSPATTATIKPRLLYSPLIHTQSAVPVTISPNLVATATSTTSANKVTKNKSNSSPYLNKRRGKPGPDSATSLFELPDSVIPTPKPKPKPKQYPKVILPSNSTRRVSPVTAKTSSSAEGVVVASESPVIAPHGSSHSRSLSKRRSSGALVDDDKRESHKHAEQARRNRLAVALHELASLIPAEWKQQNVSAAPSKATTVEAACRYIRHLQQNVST
# Experiment: relative binding free energy (BET-seq); higher = weaker binding
# Conditions: reference: library average
row,Sequence,relative binding free energy [kcal/mol]
1,AAGGGCACGTGGAGAT,0.02
2,TTGGTCACGTGTTGTG,0.18
3,TGATTCACGTGCGGGA,0.14
4,ATTGGCACGTGGTCTT,-0.16
5,AGTAACACGTGGAATA,0.21
6,TGATGCACGTGTGATA,0
7,CGTGGCACGTGGTGTA,-0.2
8,TATGGCACGTGTGTTG,-0.03
9,CTTAGCACGTGAGGGG,0.17
10,ACAATCACGTGGTTAG,0.25
11,GGTTACACGTGTAGTC,0.07
12,ATTATCACGTGGTAGT,0.04
13,TCATGCACGTGAATGT,0.33
14,TTTTACACGTGTTAGT,0.29
15,TTATACACGTGATGCG,0.03
16,CGTTACACGTGGTTGG,0
17,TGTCTCACGTGTTTGG,0.14
18,TTATGCACGTGAAATT,0.27
19,TGTCCCACGTGGTTTT,-0.1
20,CGTATCACGTGATATG,0.24
21,TCACTCACGTGTGTGT,0.31
22,GATTACACGTGTGCGT,0.25
23,ATTGTCACGTGTATTC,-0.02
24,GTCTTCACGTGTTCGG,0.33
25,ATATTCACGTGAAGGA,0.27
26,TTCCTCACGTGTAGGT,0.11

row,Sequence,relative binding free energy [kcal/mol]
1,TACTGCACGTGTGAGT,-0.01
2,TAGAGCACGTGACTGG,-0.03
3,GGCAGCACGTGTGCGG,0
4,TTATGCACGTGGGGAA,-0.05
5,TGTTACACGTGGCTAG,0.03
6,AAGCTCACGTGGTGGG,0.08
7,GGTGTCACGTGAGGGG,0.3
8,GAAGGCACGTGGTGAG,-0.23
9,TGGTTCACGTGAAAGC,0.35
10,CGTATCACGTGGTGAG,0.05
11,GCTAGCACGTGTCGTT,0.14
12,TTGGGCACGTGGGCAG,-0.19
13,ATTTTCACGTGGCTTA,0.22
14,TCTAGCACGTGGGTGT,-0.21
15,GGCATCACGTGGTAAG,0.07
16,GCGTGCACGTGGGCGT,-0.19
17,CAAATCACGTGTGTTG,0.19
18,ACGTGCACGTGTGTAG,0.05
19,TGGAACACGTGTCGGG,0.11
20,TTTAACACGTGTTAGC,-0.01
21,GGGATCACGTGTATTT,0.23
22,AGGGGCACGTGGTGGA,-0.2
23,CTATGCACGTGGTATG,-0.12
24,GGTTACACGTGCATGG,0.17
25,ATGTACACGTGGGACG,0.02
26,GTCATCACGTGTTTAG,0.22

row,Sequence,relative binding free energy [kcal/mol]
1,GGTACCACGTGGGTGC,-0.21
2,ATACTCACGTGGTGTT,0
3,AGCGGCACGTGTTGGC,-0.2
4,CGAGGCACGTGGAATT,0.15
5,TGTATCACGTGATCGT,0.18
6,GTTGTCACGTGACTTT,0.23
7,AAGGGCACGTGGGCCG,-0.15
8,AGTGTCACGTGAGGTA,0.21
9,TACAGCACGTGAGTTT,0.15
10,ATTATCACGTGTTGGT,0.11
11,ATGCGCACGTGTTCGG,-0.1
12,CGTATCACGTGCGGTG,0.17
13,ATTTGCACGTGTTTCA,-0.21
14,GACGTCACGTGGATGG,0.35
15,ATATTCACGTGGAATT,0.39
16,TGTCTCACGTGGTACT,0.19
17,TTTAGCACGTGTAAGA,0.16
18,GGCCACACGTGTGTTG,0.22
19,TACGTCACGTGTACGT,0.12
20,TTGGGCACGTGCAGCT,-0.11
21,TCTGACACGTGGTAGT,-0.09
22,TGGTTCACGTGATGCG,0.24
23,TGGATCACGTGAACGG,0.24
24,TAGCTCACGTGGTTGT,0.19
25,AAAGACACGTGTGTTG,0
26,GTAGGCACGTGGTACG,-0.17

row,Sequence,relative binding free energy [kcal/mol]
1,ATTAGCACGTGCGGAT,-0.05
2,AGGCTCACGTGGGGTG,0.12
3,TTTCTCACGTGTTAGT,0.22
4,GGGATCACGTGGAGTA,0.11
5,TTGGGCACGTGGGTAC,-0.27
6,GTTGTCACGTGGGTAA,-0.08
7,CGGTTCACGTGGTTGG,0.18
8,ATGTTCACGTGAAAAT,0.26
9,TTGCTCACGTGATGAT,0.41
10,AGGATCACGTGGTAGC,0.07
11,ACTGTCACGTGGTAAG,0.07
12,TTTTGCACGTGTGGAG,0.2
13,GGTGTCACGTGTTCAT,0.15
14,ATGTACACGTGTAAGA,0.26
15,CAGGGCACGTGGTAGA,-0.1
16,TAGTACACGTGGATGT,0.08
17,TGATGCACGTGGAGAA,0.18
18,TGTTTCACGTGTGCTG,0.39
19,GTGCTCACGTGGAATT,0.3
20,TCGGGCACGTGAGTTT,0.27
21,ATGGACACGTGCGGTA,0.06
22,TGTCTCACGTGGGCTA,0.07
23,ATATGCACGTGAGGGC,0.09
24,AGTCGCACGTGGTATA,-0.08
25,TTTAGCACGTGGTGTC,-0.2
26,GTGGACACGTGGTAGA,0.03

row,Sequence,relative binding free energy [kcal/mol]
1,TTATTCACGTGTTGTT,0.23
2,ATTGCCACGTGTTTGG,-0.08
3,TCGCTCACGTGTTTTG,0.21
4,TGTTACACGTGGAACT,0.35
5,AGTTACACGTGAATAT,0.24
6,AAATGCACGTGATAGT,0.03
7,TTGATCACGTGGAATG,0.17
8,ATTTACACGTGGGCAG,0.02
9,GTTTTCACGTGGATCA,0.31
10,ATAGTCACGTGTCGTG,0.04
11,CTTGACACGTGAGGTG,0.18
12,TCTGGCACGTGTGTAA,-0.04
13,TCTTACACGTGGTAGG,-0.03
14,ATACTCACGTGGGGGT,0.05
15,TTGTGCACGTGGATTG,0.08
16,GTGCGCACGTGTTATA,-0.11
17,ATTGACACGTGGACGG,0
18,GACGTCACGTGGGTGC,0.01
19,TCATACACGTGTTGTG,0.2
20,ATGGGCACGTGACGTG,0.1
21,GTGATCACGTGTCTTT,0.02
22,ATGATCACGTGCTGTT,0
23,ATTCGCACGTGCGTTG,0.01
24,TAGGTCACGTGTTATT,0.23
25,AATTACACGTGGTGAG,0.13
26,TTGTGCACGTGAAATT,0.39

row,Sequence,relative binding free energy [kcal/mol]
1,TTGGTCACGTGTTGAC,0.2
2,GGGATCACGTGAGTAA,0.39
3,AAAGTCACGTGGGCGT,-0.01
4,GGTTTCACGTGAGCTT,0.45
5,GGATGCACGTGGAGAA,0.1
6,ATCTTCACGTGTTTAT,0.1
7,GCTTTCACGTGGGAGG,0.07
8,TGGTGCACGTGAGTTC,0.14
9,GGTTGCACGTGGACGC,0.07
10,TGGCTCACGTGATAGT,0.36
11,AGAGGCACGTGTTAGT,-0.13
12,AGTGTCACGTGGGACT,-0.08
13,TGATGCACGTGAAGAT,0.18
14,GGTTGCACGTGTGTTA,0.25
15,TGGAACACGTGGATAG,0.1
16,TTGGACACGTGCGAGT,-0.01
17,AGTAACACGTGTCTGT,-0.05
18,ATTGGCACGTGATTCA,-0.01
19,ATATTCACGTGGATTA,0.14
20,GGTGTCACGTGCTTAT,0.05
21,GGGGTCACGTGTCGCG,0.12
22,TAGGTCACGTGCATTA,0.18
23,TAAATCACGTGGGGCA,-0.01
24,GGAACCACGTGGCGGG,-0.05
25,TTTGGCACGTGAGTGG,0.16
26,TTGTGCACGTGTCTGT,-0.08

row,Sequence,relative binding free energy [kcal/mol]
1,TGGCGCACGTGGCTGT,-0.19
2,GTGTTCACGTGGAGGA,0.35
3,CGTGCCACGTGGAGTG,-0.1
4,TGATACACGTGTTATT,0
5,TATTTCACGTGTAATT,0.39
6,ATGAGCACGTGTGGAG,-0.09
7,CGGAGCACGTGGGGTC,-0.19
8,TACGGCACGTGAAGTG,0.2
9,GAGTTCACGTGTGTGA,0.43
10,ATATTCACGTGTATGT,0.13
11,AATCTCACGTGGTTTA,0.18
12,TGGCGCACGTGGGCTG,-0.15
13,GATTTCACGTGATTAG,0.5
14,ATCGTCACGTGTAGAT,0.38
15,CCTTTCACGTGTTATT,0.22
16,CGTGTCACGTGTGGAG,0.1
17,GTAGTCACGTGGGGAT,-0.05
18,TTGTACACGTGATATC,0.24
19,GTGAACACGTGGGGGG,-0.07
20,GGGATCACGTGGGAGC,0.14
21,GAGAGCACGTGGTAAT,0.01
22,CTTAGCACGTGGGCTG,-0.19
23,GGAGCCACGTGGTGGG,-0.06
24,TGTTACACGTGAGTGT,0.26
25,TGAGTCACGTGGGTGC,-0.06
26,GGTGACACGTGGGTAT,-0.08

row,Sequence,relative binding free energy [kcal/mol]
1,GTGGGCACGTGGGCGG,-0.08
2,GATCGCACGTGGAGGT,0.03
3,TATTGCACGTGGTCGG,-0.1
4,TGTTCCACGTGGAGTG,0.06
5,AGTCTCACGTGATGCT,0.29
6,TAGGTCACGTGGTGCG,0.01
7,TTTAACACGTGTGTTG,-0.04
8,TTTAACACGTGCGGGC,-0.06
9,GGGCACACGTGGAAGG,0.2
10,TTACGCACGTGTGGTC,-0.01
11,ATATTCACGTGATCGT,0.21
12,GAAGACACGTGGTGGC,0.05
13,GATAGCACGTGCGTTG,-0.1
14,GTTGACACGTGTTATA,-0.02
15,TGCGTCACGTGAGTAT,0.36
16,AATGCCACGTGGGGGT,-0.28
17,GATTGCACGTGTCGGT,-0.01
18,ATGTACACGTGGGTGG,-0.21
19,ATGGGCACGTGATAAT,-0.06
20,TATTCCACGTGGCGTG,0
21,ATGCTCACGTGTTCGT,0.3
22,GGTTGCACGTGCTTTT,0.05
23,CGTAACACGTGGGGTG,-0.14
24,AGGAGCACGTGGGTAT,-0.17
25,GTTAGCACGTGATGAA,0.19
26,ATCGTCACGTGGGTTT,-0.03

row,Sequence,relative binding free energy [kcal/mol]
1,CAGGTCACGTGTAGGG,0.12
2,ATTTACACGTGTATGG,0.12
3,ATAGTCACGTGATAGA,0.17
4,AAGTGCACGTGGCTGG,-0.12
5,AGCTTCACGTGAGTGT,0.21
6,TAGGCCACGTGGGATT,-0.22
7,AAAATCACGTGGGTCG,0.09
8,TGAAACACGTGGATAT,0.09
9,GGTATCACGTGTGATG,0.29
10,TATTGCACGTGAGGAC,0.22
11,TGCGACACGTGGGAGG,0.01
12,TTAGACACGTGAGGGT,0.19
13,AGGGACACGTGAAGGT,0.2
14,AATGTCACGTGTGGTT,0.11
15,TAATCCACGTGGGTTT,-0.13
16,GTTCACACGTGTTATT,0.09
17,TGTCACACGTGTTGCT,0.15
18,GGTAGCACGTGTTATG,0.05
19,AATTTCACGTGGATCT,0.33
20,GTTTACACGTGTGTTT,0.13
21,ATTGGCACGTGGCGCG,-0.18
22,AGTGACACGTGGAAGT,-0.08
